Results as given in a collection of fitness landscapes (doi:10.1038/s41467-024-54723-y).
Over roughly 18,000 sequences, “TetR repression strength (sort-seq, GFP reporter)” has its median near 0.23; the highest 2% begin near 0.68. The list shows a part of the results.

target: TetR (class B, Tn10) (UniProt P04483); assay: TetR repression strength (sort-seq, GFP reporter) (relative to tetO2 = 1); higher = stronger repression; settings: E. coli
Method in brief: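 E. coli SIG10-MAX carried a low-copy plasmid library with eight randomized operator positions between a constitutive promoter and sfGFP, with TetR constitutively expressed. Cells grew 5 h at 37 °C in LB with 50 µg/mL chloramphenicol, then 10^6 cells were FACS-sorted into 13 fluorescence bins, each Illumina-sequenced. Repression strength is the top bin index plus one minus the read-weighted mean bin, divided by the wild-type operator value. Three independent transformations; variants with ≥30 reads in all replicates and CV ≤0.5 were averaged.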

Sequence of UniProt P04483 (P04483 whole entry): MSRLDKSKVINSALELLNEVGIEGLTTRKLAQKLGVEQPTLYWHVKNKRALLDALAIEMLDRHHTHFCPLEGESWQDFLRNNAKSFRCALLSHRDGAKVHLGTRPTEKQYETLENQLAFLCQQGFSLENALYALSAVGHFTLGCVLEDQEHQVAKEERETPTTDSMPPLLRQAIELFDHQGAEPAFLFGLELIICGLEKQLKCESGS

Row | Sequence | TetR repression strength
1 | TCCCTGGTAGTTCGAGAGA | 0.162
2 | TCCCGCTCAGTGCTGGAGA | 0.253
3 | TCCCGATCAGTTGGTGAGA | 0.327
4 | TCCCAGCCAGTAACGGAGA | 0.0633
5 | TCCCGCGAAGTAGAGGAGA | 0.374
6 | TCCCGCAAAGTACGGGAGA | 0.226
7 | TCCCGTAGAGTGTAAGAGA | 0.32
8 | TCCCACAGAGTCGGGGAGA | 0.0536
9 | TCCCGGCGAGTTGACGAGA | 0.257
10 | TCCCGGTGAGTCTTGGAGA | 0.287
11 | TCCCGGTGAGTCTCAGAGA | 0.317
12 | TCCCCCGTAGTGTAAGAGA | 0.415
13 | TCCCGAACAGTCTAGGAGA | 0.304
14 | TCCCACGTAGTCAATGAGA | 0.157
15 | TCCCAATAAGTATCGGAGA | 0.263
16 | TCCCCGGAAGTGGAGGAGA | 0.212
17 | TCCCTGTGAGTGATAGAGA | 0.456
18 | TCCCCAATAGTAACGGAGA | 0.218
19 | TCCCAAGAAGTTACAGAGA | 0.251
20 | TCCCTGTGAGTCTCTGAGA | 0.227
21 | TCCCCGCGAGTGGAGGAGA | 0.304
22 | TCCCCATTAGTGCGCGAGA | 0.385
23 | TCCCAGAAAGTCCCTGAGA | 0.307
24 | TCCCCACGAGTTAAAGAGA | 0.413
25 | TCCCTGACAGTTGTAGAGA | 0.174
26 | TCCCGGGGAGTGACCGAGA | 0.379

Row | Sequence | TetR repression strength
27 | TCCCACTGAGTGGTGGAGA | 0.433
28 | TCCCATATAGTGCGAGAGA | 0.274
29 | TCCCCGACAGTAACCGAGA | 0.0705
30 | TCCCTGCAAGTCGGTGAGA | 0.214
31 | TCCCGACAAGTGAGAGAGA | 0.33
32 | TCCCGTCGAGTAGAAGAGA | 0.334
33 | TCCCGTTAAGTAGACGAGA | 0.104
34 | TCCCACCGAGTAGTGGAGA | 0.0853
35 | TCCCATGAAGTATAAGAGA | 0.167
36 | TCCCCGTAAGTAGACGAGA | 0.00797
37 | TCCCTCTTAGTCAAGGAGA | 0.181
38 | TCCCCGGTAGTACTAGAGA | 0.183
39 | TCCCGGTGAGTAGTCGAGA | 0.109
40 | TCCCTAATAGTAACGGAGA | 0.207
41 | TCCCTCTCAGTTAAGGAGA | 0.234
42 | TCCCGCCCAGTTATCGAGA | 0.362
43 | TCCCAGTGAGTTGACGAGA | 0.266
44 | TCCCTCGTAGTGATCGAGA | 0.274
45 | TCCCTGTAAGTCCGCGAGA | 0.104
46 | TCCCTAACAGTGATTGAGA | 0.745
47 | TCCCATATAGTTAGCGAGA | 0.247
48 | TCCCTTGAAGTAGTGGAGA | 0.12
49 | TCCCACGAAGTGCAGGAGA | 0.0355
50 | TCCCTTTAAGTGGATGAGA | 0.255
51 | TCCCGATGAGTACGGGAGA | 0.208
52 | TCCCGAGCAGTGCCAGAGA | 0.684

Row | Sequence | TetR repression strength
53 | TCCCAAGCAGTACTGGAGA | 0.407
54 | TCCCATAAAGTAGTTGAGA | 0.0306
55 | TCCCGCCTAGTAGAAGAGA | 0.218
56 | TCCCCGAGAGTAGTAGAGA | 0.106
57 | TCCCCGGTAGTTAGGGAGA | 0.00691
58 | TCCCGCCCAGTGTTGGAGA | 0.535
59 | TCCCCGAAAGTGGGCGAGA | 0.473
60 | TCCCTCGGAGTTATAGAGA | 0.381
61 | TCCCGGCCAGTATCAGAGA | 0.211
62 | TCCCACTGAGTTCTCGAGA | 0.207
63 | TCCCCGGAAGTAGGAGAGA | 0.218
64 | TCCCAGGCAGTAGATGAGA | 0.198
65 | TCCCTGTCAGTGGATGAGA | 0.346
66 | TCCCATTAAGTTTTGGAGA | 0.0357
67 | TCCCAGGGAGTGGTAGAGA | 0.225
68 | TCCCGCCTAGTTAACGAGA | 0.277
69 | TCCCATGAAGTGTACGAGA | 0.181
70 | TCCCAGATAGTGGCGGAGA | 0.279
71 | TCCCGTCCAGTCCGCGAGA | 0.207
72 | TCCCGATCAGTAGAGGAGA | 0.223
73 | TCCCGCAGAGTCGGAGAGA | 0.0256
74 | TCCCTTGTAGTTTTAGAGA | 0.479
75 | TCCCGTATAGTAGCAGAGA | 0.187
76 | TCCCAGTGAGTCTCAGAGA | 0.229
77 | TCCCGAACAGTTCGCGAGA | 0.216
78 | TCCCCTCTAGTTGATGAGA | 0.207

Row | Sequence | TetR repression strength
79 | TCCCCCATAGTGCGGGAGA | 0.412
80 | TCCCGGGTAGTTCTGGAGA | 0
81 | TCCCCTCTAGTCGGCGAGA | 0.529
82 | TCCCGGTAAGTGACGGAGA | 0.215
83 | TCCCGTATAGTAAGGGAGA | 0.115
84 | TCCCGGCAAGTAGATGAGA | 0.264
85 | TCCCGTTGAGTGTAAGAGA | 0.277
86 | TCCCGGTAAGTGCTGGAGA | 0.0785
87 | TCCCCTAGAGTTGGTGAGA | 0.298
88 | TCCCCGGTAGTGTGGGAGA | 0.291
89 | TCCCATGAAGTGTGTGAGA | 0.127
90 | TCCCGCTTAGTGGGTGAGA | 0.179
91 | TCCCCTCCAGTGGTTGAGA | 0.264
92 | TCCCGGGGAGTAGGAGAGA | 0.337
93 | TCCCTAAGAGTACCAGAGA | 0.429
94 | TCCCGGTCAGTAATTGAGA | 0.679
95 | TCCCACGCAGTAAGTGAGA | 0.235
96 | TCCCAACTAGTTTGTGAGA | 0.131
97 | TCCCCGTAAGTCGCTGAGA | 0.133
98 | TCCCAACGAGTAATTGAGA | 0.12
99 | TCCCCAACAGTTATGGAGA | 0.188
100 | TCCCGAATAGTGCCCGAGA | 0.127
101 | TCCCATAGAGTACTGGAGA | 0.169
102 | TCCCGAAGAGTGGCCGAGA | 0.273
103 | TCCCTCCAAGTCTATGAGA | 0.192
104 | TCCCGTTGAGTCCGAGAGA | 0.261

Row | Sequence | TetR repression strength
105 | TCCCTTTCAGTTCATGAGA | 0.426
106 | TCCCAGAAAGTGTGGGAGA | 0.176
107 | TCCCACGAAGTATCCGAGA | 0.27
108 | TCCCGGTTAGTTTCTGAGA | 0.259
109 | TCCCGTCCAGTTCAGGAGA | 0.229
110 | TCCCATGGAGTCTAAGAGA | 0.184
111 | TCCCTCCAAGTGGGAGAGA | 0.14
112 | TCCCTGTCAGTTTTCGAGA | 0.369
113 | TCCCGGACAGTTAAAGAGA | 0.274
114 | TCCCTGGTAGTGAGAGAGA | 0.326
115 | TCCCGATGAGTGGCAGAGA | 0.326
116 | TCCCGTGTAGTAGATGAGA | 0.0518
117 | TCCCCAATAGTGGGAGAGA | 0.0327
118 | TCCCTGATAGTGAGGGAGA | 0.264
119 | TCCCTGGTAGTGTCTGAGA | 0.212
120 | TCCCGATGAGTGCCTGAGA | 0.0302
121 | TCCCCATTAGTGGGGGAGA | 0.26
122 | TCCCACTCAGTCTAAGAGA | 0.169
123 | TCCCGTGGAGTGTCTGAGA | 0.158
124 | TCCCTTTCAGTCGGTGAGA | 0.596
125 | TCCCTCGGAGTCCAGGAGA | 0.218
126 | TCCCTAGTAGTGTAAGAGA | 0.0975
127 | TCCCATAGAGTATTGGAGA | 0.109
128 | TCCCGTACAGTCGGGGAGA | 0.698
129 | TCCCCCTAAGTAGTCGAGA | 0.242
130 | TCCCTATTAGTCGTGGAGA | 0.153
